T1: Full length human CD98hc on CHO cells (human)
T1 construct: CHO cells stably overexpressing it; also called CHO-human CD98hc; CHO-huCD98hc
T1 chain: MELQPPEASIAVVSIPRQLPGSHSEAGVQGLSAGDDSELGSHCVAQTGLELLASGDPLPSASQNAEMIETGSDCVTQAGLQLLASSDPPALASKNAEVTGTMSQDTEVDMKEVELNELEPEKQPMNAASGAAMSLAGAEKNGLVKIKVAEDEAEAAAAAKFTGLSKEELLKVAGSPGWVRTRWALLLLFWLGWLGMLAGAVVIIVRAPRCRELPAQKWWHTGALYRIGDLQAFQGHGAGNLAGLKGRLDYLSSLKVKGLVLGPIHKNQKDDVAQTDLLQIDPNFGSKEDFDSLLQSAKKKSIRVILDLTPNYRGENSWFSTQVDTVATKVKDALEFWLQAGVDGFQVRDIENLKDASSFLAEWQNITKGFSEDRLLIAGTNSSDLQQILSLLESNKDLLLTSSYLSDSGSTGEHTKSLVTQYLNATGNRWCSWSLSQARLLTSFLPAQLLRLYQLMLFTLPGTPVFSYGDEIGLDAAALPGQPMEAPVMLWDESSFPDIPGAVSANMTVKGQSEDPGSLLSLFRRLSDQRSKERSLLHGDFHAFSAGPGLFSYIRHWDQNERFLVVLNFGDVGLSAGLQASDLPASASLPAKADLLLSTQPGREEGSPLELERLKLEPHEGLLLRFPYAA

T2: human CD98hc endogenously expressed on HCMEC/D3 cells (human)
T2 construct: human brain endothelial cell line
T2 chain: T1 chain

T3: Full length mouse CD98hc on CHO cells (mouse, UniProt P10852 1-526)
T3 construct: CHO cells stably overexpressing it; also called CHO-mouse CD98hc; CHO-mCD98hc
T3 sequence: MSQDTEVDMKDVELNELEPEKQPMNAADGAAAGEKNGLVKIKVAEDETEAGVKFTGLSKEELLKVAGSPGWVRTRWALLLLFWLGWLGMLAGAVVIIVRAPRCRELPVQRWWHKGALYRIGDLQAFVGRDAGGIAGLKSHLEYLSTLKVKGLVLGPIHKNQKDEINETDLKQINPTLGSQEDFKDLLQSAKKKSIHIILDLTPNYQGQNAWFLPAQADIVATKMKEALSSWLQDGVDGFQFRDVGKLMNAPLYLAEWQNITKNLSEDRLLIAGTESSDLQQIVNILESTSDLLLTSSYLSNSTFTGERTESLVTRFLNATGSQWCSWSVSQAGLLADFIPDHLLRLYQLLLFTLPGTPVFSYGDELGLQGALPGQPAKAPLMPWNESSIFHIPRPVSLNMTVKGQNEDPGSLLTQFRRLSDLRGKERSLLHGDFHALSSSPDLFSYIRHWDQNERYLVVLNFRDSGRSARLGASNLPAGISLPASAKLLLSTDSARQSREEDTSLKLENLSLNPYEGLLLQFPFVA

B1: CD98hc.04.012 (2+1 bispecific antibody) (bispecific antibody)
heavy 1: EVRLLESGGGLVQPGGSLRLSCAASGFTFSNYAMGWVRQAPGKGLEWVSAISGSGGSTYYADSVKGRFTTSRDDSKNALYLQMNSLRAEDTAVYYCARGGPGWYAADVWGQGTTVTVSSASTKGPSVFPLAPSSKSTSGGTAALGCLVKDYFPEPVTVSWNSGALTSGVHTFPAVLQSSGLYSLSSVVTVPSSSLGTQTYICNVNHKPSNTKVDKKV[here human IgG1 Fc with changes without letters]GGGGSGGGGSGGGGSQVQLQQSGADLVRPGDSVKISCKGSGYTFTDNTLHWVKQSHAKSLEWIGVISPYYGDASYNQKFKGKATMTVDKSSSTAYMELARLTSEDSAIYYCARVGGRLRLGYYFDHWGQGTTLTVSSGGSEGKSSGSGSESKSTGGSNIMMTQSPSSLAVSAGEKVTMNCKSSQSVLSSSNQKNYLAWYQQKPGQSPKLLIYWASTRESGVPARFTGSGSGTDFSLTITSVQAEDLAVYYCLQYLSSYTFGGGTKLEIK
heavy 2: EVRLLESGGGLVQPGGSLRLSCAASGFTFSNYAMGWVRQAPGKGLEWVSAISGSGGSTYYADSVKGRFTTSRDDSKNALYLQMNSLRAEDTAVYYCARGGPGWYAADVWGQGTTVTVSS[here human IgG1 constant region with changes without letters]
light: DIQMTQSPSSLSASVGDRVTITCRASQSISSYLNWYQQKPGKAPKLLIYAASSLQSGVPSRFSGSGSGTDFTLTISSLQPEDFATYYCQQADLPAFAFGGGTKVEIKRTVAAPSVFIFPPSDEQLKSGTASVVCLLNNFYPREAKVQWKVDNALQSGNSQESVTEQDSKDSTYSLSSTLTLSKADYEKHKVYACEVTHQGLSSPVTKSFNRGEC
B2: CD98hc.04.013 (2+1 bispecific antibody) (bispecific antibody)
heavy 1: EVRLLESGGGLVQPGGSLRLSCAASGFTFSNYAMGWVRQAPGKGLEWVSAISGSGGSTYYADSVKGRFTTSRDDSKNALYLQMNSLRAEDTAVYYCARGGPGWYAADVWGQGTTVTVSSASTKGPSVFPLAPSSKSTSGGTAALGCLVKDYFPEPVTVSWNSGALTSGVHTFPAVLQSSGLYSLSSVVTVPSSSLGTQTYICNVNHKPSNTKVDKKV[here human IgG1 Fc with changes without letters]GGGGSGGGGSGGGGSEVQLVESGGDLGMPGGSLKLSCAASGFALSGYDMSWVRQTPDKRLEWVAYLSSGGGSTYYPYTVKGRFTISRDNAQNTLYLQMSSLKSEDTAIYYCARHSEVRPWFGYWGQGTLVTVSAGGSEGKSSGSGSESKSTGGSDIVMSQSPSSLAVSVGEKVTLTCKSSQSLLYSGNQKNYLAWYQQNPGQSPKLLIYWASTRESGVPDRFTGSGSGTDFTLTISSVKAEDLAVYYCQQYYTYPPTFGAGTKLGLK
heavy 2: EVRLLESGGGLVQPGGSLRLSCAASGFTFSNYAMGWVRQAPGKGLEWVSAISGSGGSTYYADSVKGRFTTSRDDSKNALYLQMNSLRAEDTAVYYCARGGPGWYAADVWGQGTTVTVSS[here human IgG1 constant region with changes without letters]
light: B1 light
B3: CD98hc.04.018 (2+1 bispecific antibody) (bispecific antibody)
heavy 1: EVRLLESGGGLVQPGGSLRLSCAASGFTFSNYAMGWVRQAPGKGLEWVSAISGSGGSTYYADSVKGRFTTSRDDSKNALYLQMNSLRAEDTAVYYCARGGPGWYAADVWGQGTTVTVSSASTKGPSVFPLAPSSKSTSGGTAALGCLVKDYFPEPVTVSWNSGALTSGVHTFPAVLQSSGLYSLSSVVTVPSSSLGTQTYICNVNHKPSNTKVDKKV[here human IgG1 Fc with changes without letters]GGGGSGGGGSGGGGSQIQLVQSGPELKKPGETVKISCKASGYTFRNYGMNWVKQAPGKGLKWMGWINTYTGEPTYAEDFKGRFAFSLETSASTAYLQINKLKNEDEATYFCARGEAHWYFDVWGAGTTVTVSSGGSEGKSSGSGSESKSTGGSQIVLTQSPAIMSASLGERVTMTCTASSSVSSSYLYWYQQKPGSSPKLWIYSIFNLASGVPARFSGSGSGTSYSLTISSMEAEDAATYYCHQYHRSPPTFGGGTKLEIK
heavy 2: EVRLLESGGGLVQPGGSLRLSCAASGFTFSNYAMGWVRQAPGKGLEWVSAISGSGGSTYYADSVKGRFTTSRDDSKNALYLQMNSLRAEDTAVYYCARGGPGWYAADVWGQGTTVTVSS[here human IgG1 constant region with changes without letters]
light: B1 light
B4: CD98hc.04.022 (2+1 bispecific antibody) (bispecific antibody)
heavy 1: EVRLLESGGGLVQPGGSLRLSCAASGFTFSNYAMGWVRQAPGKGLEWVSAISGSGGSTYYADSVKGRFTTSRDDSKNALYLQMNSLRAEDTAVYYCARGGPGWYAADVWGQGTTVTVSSASTKGPSVFPLAPSSKSTSGGTAALGCLVKDYFPEPVTVSWNSGALTSGVHTFPAVLQSSGLYSLSSVVTVPSSSLGTQTYICNVNHKPSNTKVDKKV[here human IgG1 Fc with changes without letters]GGGGSGGGGSGGGGSEVQLQQSGAELVKPGASVKLSCTASGFNIKDTFMHWMKQRPEQGLEWIGRIDPANANTRYDPKFQGKATITTDTSSNTAYLQLSSLTSEDTAVYYCARDVYYDVWGAGTTVTVSSGGSEGKSSGSGSESKSTGGSDILMTQSPSSMSVSLGDTVTITCHASQGISSNIGWLQQKPGRSFKGLIYHGSNLEDGVPSRFTGSGSGTDYSLTISGLESEDFADYYCVQYAQFPRTFGGGTKLEIQ
heavy 2: EVRLLESGGGLVQPGGSLRLSCAASGFTFSNYAMGWVRQAPGKGLEWVSAISGSGGSTYYADSVKGRFTTSRDDSKNALYLQMNSLRAEDTAVYYCARGGPGWYAADVWGQGTTVTVSS[here human IgG1 constant region with changes without letters]
light: B1 light
B5: CD98hc.04.045 (2+1 bispecific antibody) (bispecific antibody)
heavy 1: EVRLLESGGGLVQPGGSLRLSCAASGFTFSNYAMGWVRQAPGKGLEWVSAISGSGGSTYYADSVKGRFTTSRDDSKNALYLQMNSLRAEDTAVYYCARGGPGWYAADVWGQGTTVTVSSASTKGPSVFPLAPSSKSTSGGTAALGCLVKDYFPEPVTVSWNSGALTSGVHTFPAVLQSSGLYSLSSVVTVPSSSLGTQTYICNVNHKPSNTKVDKKV[here human IgG1 Fc with changes without letters]GGGGSGGGGSGGGGSQIQLVQSGPELKKPGETVKISCKASGYSITNFGMNWVKQAPGKGLKWMGWVNTYTGEPTYADDFKGRFAFSLETSASTASLQINNLKNEDTATYFCTRSVITYTMDYWGQGTSVTVSSGGSEGKSSGSGSESKSTGGSDIQLTQSPSSLSASLGERVSLTCRASQEISGYLSWLQQKPDGTIKRLIYAASTLDSGVPKRFSGSRSGSDYSLTISSLESEDFADYYCLQYASYPRTFGGGTKVEIK
heavy 2: EVRLLESGGGLVQPGGSLRLSCAASGFTFSNYAMGWVRQAPGKGLEWVSAISGSGGSTYYADSVKGRFTTSRDDSKNALYLQMNSLRAEDTAVYYCARGGPGWYAADVWGQGTTVTVSS[here human IgG1 constant region with changes without letters]
light: B1 light
B6: CD98hc.04.046 (2+1 bispecific antibody) (bispecific antibody)
heavy 1: EVRLLESGGGLVQPGGSLRLSCAASGFTFSNYAMGWVRQAPGKGLEWVSAISGSGGSTYYADSVKGRFTTSRDDSKNALYLQMNSLRAEDTAVYYCARGGPGWYAADVWGQGTTVTVSSASTKGPSVFPLAPSSKSTSGGTAALGCLVKDYFPEPVTVSWNSGALTSGVHTFPAVLQSSGLYSLSSVVTVPSSSLGTQTYICNVNHKPSNTKVDKKV[here human IgG1 Fc with changes without letters]GGGGSGGGGSGGGGSQIQLVQSGPVLKKPGETVKISCKASGYTFTNFGMNWVKQAPGKGLKWMGWIDTYTREPTYVDDFKGRFAFSLETSVTTAYLQINDLKNEDSATYFCARGESHWYFDVWGAGTTVTVSSGGSEGKSSGSGSESKSTGGSQIVLTQSPAIMSASLGERVTMTCIVSSSVSSSYLYWYQQKPGSSPKLWIYSTSILASGVPGRFSGSGSGTSYSLTISSMEAEDAATYYCHQYHRSPPTFGGGTKLEIK
heavy 2: EVRLLESGGGLVQPGGSLRLSCAASGFTFSNYAMGWVRQAPGKGLEWVSAISGSGGSTYYADSVKGRFTTSRDDSKNALYLQMNSLRAEDTAVYYCARGGPGWYAADVWGQGTTVTVSS[here human IgG1 constant region with changes without letters]
light: B1 light
B7: CD98hc.04.054 (2+1 bispecific antibody) (bispecific antibody)
heavy 1: EVRLLESGGGLVQPGGSLRLSCAASGFTFSNYAMGWVRQAPGKGLEWVSAISGSGGSTYYADSVKGRFTTSRDDSKNALYLQMNSLRAEDTAVYYCARGGPGWYAADVWGQGTTVTVSSASTKGPSVFPLAPSSKSTSGGTAALGCLVKDYFPEPVTVSWNSGALTSGVHTFPAVLQSSGLYSLSSVVTVPSSSLGTQTYICNVNHKPSNTKVDKKV[here human IgG1 Fc with changes without letters]GGGGSGGGGSGGGGSQVQLQQSAAELARPGASVKMSCETSGYTFTRYTMNWVKQRPGQGLDWIGYINPSSGYAEYNQKFRGKTTLTADKSSSTAYIQLNSLTSEDSAVYYCVRYDGNYVYWGQGTTLTVSSGGSEGKSSGSGSESKSTGGSDIVMTQSQKFMSTSFGDRVDITCKASQNVGSAVAWYQQKPGQSPKLLIYSASNRYTGVPDRFTGSGSGTDFTLTINNMQSADLADYFCQQYNFYPLTFGAGTKLDLK
heavy 2: EVRLLESGGGLVQPGGSLRLSCAASGFTFSNYAMGWVRQAPGKGLEWVSAISGSGGSTYYADSVKGRFTTSRDDSKNALYLQMNSLRAEDTAVYYCARGGPGWYAADVWGQGTTVTVSS[here human IgG1 constant region with changes without letters]
light: B1 light

Biological target: T1, Full length human CD98hc on CHO cells
Assay: FACS, 5 ug/ml

Binder	MFI fold-change relative to isotype hIgG1
B1	30.9
B2	26.4
B3	14.8
B4	5.6
B5	0.9
B6	3.9
B7	30.6

Biological target: T2, human CD98hc endogenously expressed on …
Assay: FACS, 5 ug/ml

Binder	MFI fold-change relative to isotype hIgG1
B1	96.7
B2	82.1
B3	53.4
B4	17.9
B5	1.5
B6	5.6
B7	115

Biological target: T3, Full length mouse CD98hc on CHO cells
Assay: FACS, 5 ug/ml

Binder	MFI fold-change relative to isotype hIgG1
B1	1.2
B2	1.3
B3	0.7
B4	1.1
B5	0.4
B6	0.8
B7	1.8

Reference: patent publication US20250270341A1 (Alector, published 2025)
